Some of the results follow. Sequences were assembled here from the parent chain. Values near 0.05 are background.
B1: TEV protease; numbered along this chain (parent)
chain: MGESLFKGPRDYNPISSSICHLTNESDGHTTSLYGIGFGPFIITNKHLFRRNNGTLVVQSLHGVFKVKDTTTLQQHLVDGRDMIIIRMPKDFPPFPQKLKFREPQREERICLVTTNFQTKSMSSMVSDTSCTFPSGDGIFWKHWIQTKDGQCGSPLVSTRDGFIVGIHSASNFTNTNNYFTSVPKNFMELLTNQEAQQWVSGWRLNADSVLWGGHKVFMVKPEEPFQPVKEATQL

Variants of: B1
Assay: raw area under fraction-flipped curve 0-4 h after induction (AUC4h, not background-subtracted), DNA-recorder readout of cleavage of the substrate (dimensionless); higher = more cleavage of the substrate by the protease variant
Conditions: temperature: 34 °C; time window: 0-4 h after rhamnose induction
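Further: Bxb1 expression induced with 0.2% (w/v) L-rhamnose at OD600 near 0.5, cultures sampled hourly, flipped fraction per protease–substrate barcode pair counted by paired-end Illumina sequencing.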

Variant | area with substrate ENLYFQD | area with substrate ENLYFQK | area with substrate ENLYFQN | area with substrate ENLYFQR | area with substrate ENLYFQS | area with substrate ENLYFQT | area with substrate ENLYFQV | area with substrate ENLYFQW | area with substrate ENLYFQY | area with substrate ENLYFQC | area with substrate ENLYFQE | area with substrate ENLYFQG | area with substrate ENLYFQI | area with substrate ENLYFQL | area with substrate ENLYFQM | area with substrate ENLYFQQ | area with substrate ENLYFQH | area with substrate ENLYFQF | area with substrate ENLYFQP
T115G | 0.0685 | 0.079 | 0.0712 | 0.0741 | 0.0954 | 0.0563 | 0.0591 | 0.053 | 0.0669 | – | – | – | – | – | – | – | – | – | –
L112T | 0.0681 | 0.0721 | 0.0498 | 0.0525 | 0.0737 | 0.0663 | – | 0.0613 | 0.0525 | 0.09 | 0.0679 | 0.0646 | 0.057 | 0.0754 | 0.0812 | 0.075 | – | – | –
F218R | 0.0626 | 0.0538 | 0.0508 | – | 0.0821 | – | 0.0522 | – | – | – | – | – | – | 0.058 | – | – | 0.06 | – | –
H168R | – | 0.0605 | – | – | 0.0601 | 0.0606 | 0.0596 | 0.0683 | 0.0487 | 0.0433 | 0.0576 | 0.042 | – | 0.0489 | 0.07 | 0.0624 | – | 0.0476 | –
K120A | 0.0596 | 0.0675 | 0.0826 | 0.0606 | 0.107 | – | 0.0704 | 0.0703 | – | 0.0975 | – | 0.104 | 0.0394 | – | 0.095 | – | – | – | 0.055
I86N | – | 0.0588 | – | 0.0486 | 0.0516 | – | – | – | – | 0.0285 | 0.0502 | – | – | – | 0.0526 | – | – | – | –
G138R | – | – | – | 0.0509 | 0.0888 | – | – | 0.059 | – | 0.098 | – | 0.091 | 0.073 | – | – | – | – | 0.076 | 0.0574
S130R | – | – | 0.0646 | 0.0543 | 0.0823 | 0.0614 | – | – | – | 0.0924 | – | – | 0.0683 | – | 0.0595 | – | 0.0676 | – | 0.0826
G136K | 0.0854 | – | 0.0781 | 0.0589 | 0.0999 | 0.0559 | – | 0.0704 | 0.076 | 0.126 | – | 0.0939 | 0.0516 | – | 0.0756 | – | – | – | 0.0587
H29F | – | – | 0.0777 | 0.0597 | 0.101 | – | – | 0.0468 | 0.0916 | 0.122 | – | 0.15 | – | 0.0753 | 0.118 | 0.0689 | – | – | –
S209P | – | – | 0.0723 | 0.065 | 0.0894 | – | – | – | 0.066 | 0.091 | – | 0.0836 | – | 0.0428 | – | – | 0.0653 | – | –
D161Q | 0.0563 | 0.0503 | – | 0.0589 | 0.0621 | 0.0604 | 0.0436 | 0.0417 | – | 0.0842 | – | 0.0523 | 0.0515 | 0.0426 | – | – | – | 0.0725 | 0.0491
K68R | – | 0.0707 | – | 0.0583 | 0.0969 | 0.069 | – | 0.0718 | 0.0739 | 0.118 | – | – | 0.0436 | – | – | – | 0.0828 | – | 0.0661
W141H | – | – | 0.0659 | 0.0705 | 0.0763 | – | – | – | 0.0613 | – | 0.0616 | 0.0624 | 0.0378 | 0.0507 | 0.0884 | – | 0.079 | – | –
C152R | 0.0664 | – | 0.0667 | 0.0366 | 0.0581 | 0.0548 | 0.0696 | 0.0726 | 0.0499 | 0.0451 | – | 0.0709 | – | 0.0662 | 0.0593 | 0.0663 | 0.0384 | – | 0.0531
A207C | 0.0841 | 0.0685 | 0.0859 | 0.0598 | 0.102 | 0.0674 | – | 0.069 | 0.0874 | 0.108 | – | 0.0849 | 0.0515 | 0.0499 | – | 0.0749 | 0.08 | – | 0.0566

— the supplement of paper PMC12217912
